Results reported in the supplement of paper PMC9334596.
Where “and” joins values, the source holds several entries; their conditions need not be identical. Equal values may be shown once. Whole data set: some 5,300 compounds, median “PER2::LUC luminescence relative to vehicle control” near 0.96, cut for the highest 2% near 1.3. This is one part of the list.

System: mPer2Luc MEF
Assay: PER2::LUC luminescence relative to vehicle control (fold of vehicle); higher = higher PER2::LUC reporter signal
Conditions: 10 µM
Procedure, shortened: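 The reported values are PER2::LUC luminescence as fold of vehicle control in mouse embryonic fibroblasts carrying the mPer2Luc reporter. Cells were seeded at ~3000 per well in 384-well plates in DMEM with 10% FBS at 37 °C and 5% CO2, and compounds were added at 10 μM 48 h later. ONE-Glo luminescence was read 24 h and 30 h after treatment.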

SMILES	PER2::LUC luminescence (time after treatment 24 h)	PER2::LUC luminescence (time after treatment 30 h)
O=C1Cc2c([nH]c3ccc(Br)cc23)-c2ccccc2N1	1.15	1.88
CNCCCC12CCC(c3ccccc31)c1ccccc12	0.652	0.565
CCc1c(O)cc(O)c(C(=O)c2ccc(OCCN3CCOCC3)c(OC)c2)c1CC(=O)N(CCOC)CCOC	0.355	0.347
Oc1cc2c(cc1O)CN(C(=S)NCCc1ccc(Cl)cc1)CCC2	0.859	1.13
CCCCCC(=O)O[C@]1(C(C)=O)CC[C@H]2[C@@H]3CCC4=CC(=O)CC[C@]4(C)[C@H]3CC[C@@]21C	0.914	1.06
O=C(NCc1cccc(O)c1)c1cc2cc(F)ccc2[nH]1	0.948	0.986
CCCCCCC(=O)OC1CC(C)(C)NC(C)(C)C1	1.24	1.15
CC1(C)C[C@@H]1C(=O)N/C(=C\CCCCSC[C@H](N)C(=O)O)C(=O)O	1 and 0.914	1.06 and 0.891
Cc1cc(Cn2cnc3c2C[C@@H](C(=O)O)N(C(=O)C(c2ccccc2)c2ccccc2)C3)ccc1N	0.59	0.914
CN(C)Cc1cccc(N=C(c2ccccc2)c2c(O)[nH]c3cc(C(=O)N(C)C)ccc23)c1	0.742 and 0.494	0.727 and 0.408
NC[C@@H](O)c1ccc(O)c(O)c1	1.26	1.04
Nc1nc(Cl)nc2c1ncn2[C@@H]1O[C@H](COP(=O)(O)OP(=O)(O)OP(=O)(O)O)[C@H](O)C1O (stereo partly specified)	1.1	1.08
O=C(O[C@@H]1Cc2c(O)cc(O)cc2O[C@@H]1c1ccc(O)c(O)c1)c1cc(O)c(O)c(O)c1	1.02	0.897
C[C@@H](O)[C@H]1C(=O)N2C(C(=O)O)=C(S[C@@H]3CN[C@H](C(=O)N(C)C)C3)[C@H](C)[C@H]12	1.05	1.07
CC(=O)NCC(=O)N[C@H](CCC(=O)O)C(=O)O	1.03	1.02
CCCCCCCC/C=C\CCCCCCCC(=O)NCCO	1.02 and 1.05	1.05 and 1.02
O=C(O)CCNc1cc(N2CCc3ccccc3CC2)nc(-c2cccnc2)n1	0.987	1.04
CC(=O)O[C@H]1C[C@@H]2CC[C@@H]3[C@H](CC[C@@]4(C)[C@H]3C[C@H]([N+]3(C)CCCCC3)[C@@H]4OC(C)=O)[C@@]2(C)C[C@@H]1N1CCCCC1	0.918	1.12
O[C@H]1CC[C@H](Nc2ncc3nc(Nc4c(F)cc(F)cc4F)n([C@H]4CCOC4)c3n2)CC1	0.731	0.67
Cc1cc(C)cc(OCC2CNC(=O)O2)c1 (stereo unspecified)	0.76	0.963
COc1ccc(C(=O)O)c(O)c1OC	0.945	0.923
COc1ccc(NC(=O)c2ccc(C(=N)N(C)C)cc2)c(C(=O)Nc2ccc(Cl)cn2)c1	0.825	0.803
CC1(C)O[C@@H]2C[C@H]3[C@@H]4CCC5=CC(=O)CC[C@]5(C)[C@@]4(F)[C@@H](O)C[C@]3(C)[C@]2(C(=O)CCl)O1	0.594	1.28
C[C@]12C=CC(=O)C=C1CC[C@H]1[C@@H]3C[C@@H](O)[C@](O)(C(=O)CO)[C@@]3(C)C[C@H](O)[C@@]12F	0.712	1.29
O=C(O)COc1ccccc1C(Nc1ccccn1)c1cc(Cl)c2cccnc2c1O (stereo unspecified)	1.02	0.962
C[C@@H]1O[C@@H](OC[C@H]2O[C@@H](Oc3c(-c4ccc(OCCO)c(OCCO)c4)oc4cc(OCCO)cc(O)c4c3=O)[C@H](O)[C@@H](O)[C@@H]2O)[C@H](O)[C@H](O)[C@H]1O	1.15	0.866
CCN(CC)C(=O)/C(C#N)=C/c1cc(O)c(O)c([N+](=O)[O-])c1	1.02	0.969

SMILES	PER2::LUC luminescence (time after treatment 24 h)	PER2::LUC luminescence (time after treatment 30 h)
C=C1CCN([C@H](C)[C@](O)(Cn2cncn2)c2ccc(F)cc2F)CC1	1.03	0.879
NC(N)=NCCC[C@H](NC(=O)[C@@H](N)Cc1ccc(O)cc1)C(=O)O	1.04	0.909
CN(C/C=C/c1ccccc1)Cc1cccc2ccccc12	0.5	0.535
CC(=O)CCCCn1c(=O)c2c(ncn2C)n(C)c1=O	1.26	1.23
CCCC(=O)NCCc1c(I)[nH]c2ccc(OC)cc12	0.668	0.814
CN1C(=O)OC(C)(C)C1=O	1.07	0.86
COc1cccc(Nc2c(C(N)=O)cnc3c(C)cc(S(=O)(=O)c4cccc(C(=O)N(C)C)c4)cc23)c1	1.01	1.01
O=C(O)C=C1CCCc2ccccc2C1O (stereo unspecified)	1.01	0.91
OCCN1CCN(CCCN2c3ccccc3C=Cc3ccccc32)CC1	0.724	0.798
Nc1c(CC(=O)O)cccc1C(=O)c1ccc(Br)cc1	1.09	1.02
N[C@@H](Cc1cc(CP(=O)(O)O)cc(-c2ccccc2Cl)c1)C(=O)O	0.98	0.874
OCC1OC(n2cnc3c(NC4CCCC4)nc(Cl)nc32)C(O)C1O (stereo unspecified)	0.932	0.97
Clc1ccc(C(c2ccc(Cl)cc2)[n+]2ccn(CC(OCc3ccc(Cl)cc3Cl)c3ccc(Cl)cc3Cl)c2)cc1 (stereo unspecified)	0.444	0.474
C[C@H]1O[C@@H](n2cc(F)c(=O)[nH]c2=O)[C@H](O)[C@@H]1O	0.9 and 0.84	0.663 and 0.685
CC(C)(C)c1nc(-c2cccc(NS(=O)(=O)c3c(F)cccc3F)c2F)c(-c2ccnc(N)n2)s1	0.717 and 0.611 and 0.581	0.667 and 0.589 and 0.579
CC1(C)CC[C@]2(C(=O)O)CC[C@]3(C)C(=CC[C@@H]4[C@@]5(C)CC[C@H](O)C(C)(C)[C@@H]5CC[C@]43C)[C@@H]2C1	0.935	0.889
O=C(O)CCCCC(CCSCc1ccccc1)SCc1ccccc1 (stereo unspecified)	1.33	1.19
CC(C)NC[C@H](O)COc1cccc2ccccc12	0.867 and 0.765	0.949 and 0.753
O=c1c(-c2ccc(O)cc2)coc2cc(O)ccc12	0.822	0.788
CS(=O)(=O)c1ccc(-c2cnc(N)c(C(=O)Nc3ccccc3)n2)cc1	0.446	0.49
CCCCCNC(=N)N/N=C/c1c[nH]c2ccc(OC)cc12	0.221	0.263
COc1ccc(S(=O)(=O)Nc2ccccc2CN(C)C/C=C/c2ccc(Cl)cc2)cc1	1.02 and 0.909	0.939 and 0.913
CC(C)(O)c1ccc2c(c1)ncn2-c1cccc(-c2ccccc2C#N)c1	0.829	0.89
O=C(O)c1ccc(S(=O)(=O)N(Cl)Cl)cc1	0.921	1.67
O=C(Oc1ccccc1C(=O)O)c1ccccc1O	1.15 and 0.613	1.16 and 0.995
COc1c(C)c2c(c(O)c1C/C=C(\C)CCC(=O)O)C(=O)OC2	0.802	0.675
